Results from the supplement of paper PMC8948288.
The sequences are guide strands of siRNAs; only the seed at positions 2 to 7 varies.

How the values were obtained:
GL261 = experiment: cell viability relative to siNT1 (ATP content); H4 human neuroglioma and GL261 mouse glioma; higher = less toxic; details: siRNA concentration 25 nM; 96 h; mouse
H4 = experiment: as above; details: siRNA concentration 10 nM; 96 h; human
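Further: cells reverse transfected with siRNA duplexes via lipid reagent, ATP read by luminescence, triplicate wells, values scaled to mean viability with non-targeting control siNT1.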

Sequence	cell viability (GL261)	cell viability (H4)
UUCUAUUACAUGUAAACCA	51.1%	74%
UUCUCAAACAUGUAAACCA	38%	107%
UUCUCACACAUGUAAACCA	25.2%	66%
UUCUCAGACAUGUAAACCA	27%	71.2%
UUCUCAUACAUGUAAACCA	32.2%	67.6%
UUCUCCAACAUGUAAACCA	34.1%	80.1%
UUCUCCCACAUGUAAACCA	17.6%	52%
UUCUCCGACAUGUAAACCA	36.2%	94.6%
UUCUCCUACAUGUAAACCA	24.7%	59.9%
UUCUCGAACAUGUAAACCA	46%	92.2%
UUCUCGCACAUGUAAACCA	19.9%	61.3%
UUCUCGGACAUGUAAACCA	58.5%	71.4%
UUCUCGUACAUGUAAACCA	22.7%	89.6%
UUCUCUAACAUGUAAACCA	48.7%	89.4%
UUCUCUCACAUGUAAACCA	18.1%	63.5%
UUCUCUGACAUGUAAACCA	37.1%	86.9%
UUCUCUUACAUGUAAACCA	32.1%	91.3%
UUCUGAAACAUGUAAACCA	78%	81.5%
UUCUGACACAUGUAAACCA	38.4%	65%
UUCUGAGACAUGUAAACCA	54.5%	64.9%
UUCUGAUACAUGUAAACCA	50.3%	61.6%
UUCUGCAACAUGUAAACCA	37.8%	56%
UUCUGCCACAUGUAAACCA	6.21%	29.3%
UUCUGCGACAUGUAAACCA	35.4%	92.8%

Sequence	cell viability (GL261)	cell viability (H4)
UUCUGCUACAUGUAAACCA	7.95%	29.8%
UUCUGGAACAUGUAAACCA	27.3%	64.5%
UUCUGGCACAUGUAAACCA	16.2%	7.34%
UUCUGGGACAUGUAAACCA	4.3%	8.37%
UUCUGGUACAUGUAAACCA	14.9%	20.8%
UUCUGUAACAUGUAAACCA	61%	83.4%
UUCUGUCACAUGUAAACCA	22%	63.5%
UUCUGUGACAUGUAAACCA	38.2%	67.6%
UUCUGUUACAUGUAAACCA	25.8%	63.5%
UUCUUAAACAUGUAAACCA	68.2%	92.1%
UUCUUACACAUGUAAACCA	49.2%	83.9%
UUCUUAGACAUGUAAACCA	61.7%	103%
UUCUUAUACAUGUAAACCA	77.4%	103%
UUCUUCAACAUGUAAACCA	30.4%	91.1%
UUCUUCCACAUGUAAACCA	28.7%	44.1%
UUCUUCGACAUGUAAACCA	48.5%	88.9%
UUCUUCUACAUGUAAACCA	16%	54%
UUCUUGAACAUGUAAACCA	61.2%	75.6%
UUCUUGCACAUGUAAACCA	21.3%	14.4%
UUCUUGGACAUGUAAACCA	29.8%	44.7%
UUCUUGUACAUGUAAACCA	23.7%	74.9%
UUCUUUAACAUGUAAACCA	60.2%	102%
UUCUUUCACAUGUAAACCA	43.6%	47.8%
UUCUUUGACAUGUAAACCA	59.8%	89.4%

Sequence	cell viability (GL261)	cell viability (H4)
UUCUUUUACAUGUAAACCA	42.1%	91.5%
UUGAAAAACAUGUAAACCA	67.6%	77.9%
UUGAAACACAUGUAAACCA	62.5%	86.4%
UUGAAAGACAUGUAAACCA	49.7%	104%
UUGAAAUACAUGUAAACCA	59.2%	66.4%
UUGAACAACAUGUAAACCA	57%	99.6%
UUGAACCACAUGUAAACCA	46.8%	48.8%
UUGAACGACAUGUAAACCA	59%	102%
UUGAACUACAUGUAAACCA	50.4%	59.7%
UUGAAGAACAUGUAAACCA	60.8%	98.8%
UUGAAGCACAUGUAAACCA	21.9%	46.9%
UUGAAGGACAUGUAAACCA	45.7%	53.9%
UUGAAGUACAUGUAAACCA	35%	62.2%
UUGAAUAACAUGUAAACCA	55.3%	105%
UUGAAUCACAUGUAAACCA	64.3%	66.5%
UUGAAUGACAUGUAAACCA	71%	87.3%
UUGAAUUACAUGUAAACCA	57.1%	78.2%
UUGACAAACAUGUAAACCA	67.5%	102%
UUGACACACAUGUAAACCA	63.3%	56.5%
UUGACAGACAUGUAAACCA	50.5%	65.5%
UUGACAUACAUGUAAACCA	35.7%	112%
UUGACCAACAUGUAAACCA	51.5%	80.6%
UUGACCCACAUGUAAACCA	31.3%	47.1%
UUGACCGACAUGUAAACCA	48.2%	71.1%

Sequence	cell viability (GL261)	cell viability (H4)
UUGACCUACAUGUAAACCA	56.3%	46.2%
UUGACGAACAUGUAAACCA	56.7%	109%
UUGACGCACAUGUAAACCA	51.8%	69%
UUGACGGACAUGUAAACCA	45.4%	81.1%
UUGACGUACAUGUAAACCA	56.4%	71.9%
UUGACUAACAUGUAAACCA	73.7%	106%
UUGACUCACAUGUAAACCA	25.5%	85.9%
UUGACUGACAUGUAAACCA	55.3%	95.7%
UUGACUUACAUGUAAACCA	62%	104%
UUGAGAAACAUGUAAACCA	49.4%	97%
UUGAGACACAUGUAAACCA	44.7%	65.3%
UUGAGAGACAUGUAAACCA	56.9%	88.6%
UUGAGAUACAUGUAAACCA	19.8%	81.4%
UUGAGCAACAUGUAAACCA	48.8%	79.7%
UUGAGCCACAUGUAAACCA	35.9%	51.2%
UUGAGCGACAUGUAAACCA	71.8%	80%
UUGAGCUACAUGUAAACCA	23.6%	41%
UUGAGGAACAUGUAAACCA	49.2%	83.4%
UUGAGGCACAUGUAAACCA	15%	22.1%
UUGAGGGACAUGUAAACCA	30.2%	44.1%
UUGAGGUACAUGUAAACCA	33.6%	41.1%
UUGAGUAACAUGUAAACCA	58.5%	81.9%
UUGAGUCACAUGUAAACCA	28.3%	79.9%
UUGAGUGACAUGUAAACCA	58.6%	86.3%

Sequence	cell viability (GL261)	cell viability (H4)
UUGAGUUACAUGUAAACCA	53.8%	88.5%
UUGAUAAACAUGUAAACCA	62.2%	88.2%
UUGAUACACAUGUAAACCA	40.8%	74.8%
UUGAUAGACAUGUAAACCA	49%	77.1%
UUGAUAUACAUGUAAACCA	81.3%	79%
UUGAUCAACAUGUAAACCA	58%	82.4%
UUGAUCCACAUGUAAACCA	38.9%	48.1%
UUGAUCGACAUGUAAACCA	55.2%	76.9%
UUGAUCUACAUGUAAACCA	61.4%	69.8%
UUGAUGAACAUGUAAACCA	26.9%	96%
UUGAUGCACAUGUAAACCA	22.9%	38.1%
UUGAUGGACAUGUAAACCA	22.5%	68.7%
UUGAUGUACAUGUAAACCA	33%	58.7%
UUGAUUAACAUGUAAACCA	53.5%	100%
UUGAUUCACAUGUAAACCA	38.3%	72.9%
UUGAUUGACAUGUAAACCA	60.7%	98.6%
UUGAUUUACAUGUAAACCA	61.8%	82.2%
UUGCAAAACAUGUAAACCA	59%	109%
UUGCAACACAUGUAAACCA	21.6%	34.2%
UUGCAAGACAUGUAAACCA	54.3%	116%
UUGCAAUACAUGUAAACCA	53.8%	63.3%
UUGCACAACAUGUAAACCA	24.8%	89.9%
